{
  "source": "patent US20240190987A1",
  "about": "“Engineered EpCam Binding Antibodies” (TigaTX, priority 2021, published 2024)",
  "key": {"[1]": {"test_system": "AEKO cells", "experiment": "TDCC co-culture assay, AEKO", "format": "cell-based, human", "conditions": "up to 1 nM, 69 hours", "method": "(§1) Surface binding was measured on an isogenic panel of EpCAM-knockout and EpCAM-overexpressing cell lines derived from A-431, a human epidermoid carcinoma cell line (FIG. 34). AEKO and AEPO are isogenic control cell lines in which there is zero EpCAM expression (AEKO) or high EpCAM expression (AEKO-E4). AEKO is a commercially available subclone of A-431 in which human EpCAM expression is “knocked out” (disrupted) by a frameshift mutation (catalog number ab261902; Abcam, Cambridge, UK). AEPO was developed using the AEKO cell line as a starting point and restoring expression of human EpCAM by transducing with a lentiviral vector containing human EpCAM downstream of an EF1α promoter. […]\n(§2) Co-culture assays were used to assess T-cell activation (CD69 upregulation), cytokine production or T-cell-dependent cellular cytotoxicity (TDCC) of target cells. […] While T cells were being processed, target cells were incubated with CellTiter-Glo 2.0 (Promega, Madison, WI) for 15 min at room temperature with shaking then read for luciferase light emission on a GloMax Explorer plate reader using default settings. Specific Cytotoxicity (%) was calculated from the relative luminescence unit values (RLU) using the formula: [1−(experimental RLU/vehicle-treated RLU))×100]. The frequency of CD69+ T-cells (%) was calculated as the percentage of CD69-positive events within the CF405M-negative population. […]"}, "[2]": {"test_system": "human T-cells with AEPO target cells", "experiment": "T-cell activation (CD69) in co-culture with AEPO", "format": "cell-based", "conditions": "up to 1 nM, 69 hours", "method": "(§3) The HCT-116, AEKO and AEPO cell lines described above were used as target cells in a TDCC co-culture assay with Ab1070 (FIG. 35). […] EpCAM structure-activity relationship (SAR) campaign\n(§4) Co-culture assays were used to assess T-cell activation (CD69 upregulation), cytokine production or T-cell-dependent cellular cytotoxicity (TDCC) of target cells. Flat-bottom 96-well plates were seeded with 5,000 target cells in complete growth media (DMEM+10% FBS+1% penicillin/streptomycin) 16-24 hrs before the assay. Antibody drugs were added in 10 μL growth media and incubated for at least 10 min at 37° C. Indinavir or vehicle control was added in 10 μL growth media. […] While T cells were being processed, target cells were incubated with CellTiter-Glo 2.0 (Promega, Madison, WI) for 15 min at room temperature with shaking then read for luciferase light emission on a GloMax Explorer plate reader using default settings. Specific Cytotoxicity (%) was calculated from the relative luminescence unit values (RLU) using the formula: [1−(experimental RLU/vehicle-treated RLU))×100]. The frequency of CD69+ T-cells (%) was calculated as the percentage of CD69-positive events within the CF405M-negative population. Dose-response curves and EC50 values were calculated in GraphPad Prism 9 software (GraphPad Software San Diego, CA)."}, "[3]": {"test_system": "AEPO cells", "experiment": "TDCC co-culture assay, AEPO", "format": "cell-based, human", "conditions": "up to 1 nM, 69 hours", "method": "as §1, §2"}, "[4]": {"test_system": "human T-cells with AEKO target cells", "experiment": "T-cell activation (CD69) in co-culture with AEKO", "format": "cell-based", "conditions": "up to 1 nM, 69 hours", "method": "as §3, §4"}, "[5]": {"test_system": "HCT-116 target cells", "experiment": "TDCC co-culture assay, HCT-116 target cells", "format": "cell-based, human", "conditions": "conventional TCE format, human T-cells", "description": "(§5) Leukapheresis packs were obtained from deidentified healthy adult donors (StemCell Technologies, Vancouver, BC). Peripheral blood mononuclear cells (PBMCs) were first isolated using the EasySep Direct Human PBMC Kit (StemCell Technologies). Human T cells were magnetically isolated from the PBMCs using the EasySep Human T cell Isolation Kit (StemCell Technologies). T cells were cryopreserved in DMEM with 10% FBS and 10% DMSO and thawed the day of experiments.\nCo-culture assays were used to assess T-cell activation (CD69 upregulation), cytokine production or T-cell-dependent cellular cytotoxicity (TDCC) of target cells. Flat-bottom 96-well plates were seeded with 5,000 target cells in complete growth media (DMEM+10% FBS+1% penicillin/streptomycin) 16-24 hrs before the assay. Antibody drugs were added in 10 μL growth media and incubated for at least 10 min at 37° C. Indinavir or vehicle control was added in 10 μL growth media. Magnetically isolated human T-cells were thawed, washed, and resuspended in complete growth media, then added to target cells (50,000 T cells per well) in 80 μL growth media for a final assay well volume of 100 μL. The final effector:target (E:T) ratio was 10:1. Assay plates were incubated at 37° C. with 5% CO2 for 66-70 hr depending on the experiment. T-cells were transferred to a U-bottom 384-well plate and spun (600 rcf×5 min). Supernatants were stored at −20° C. for later analysis of cytokines. T-cells were resuspended in CF405M viability dye (0.5 μM, Biotium, Fremont, CA) in PBS for 10 min at 37° C. At the end of viability staining, cells were fixed by adding methanol-free paraformaldehyde (Electron Microscopy Sciences, Hatfield, PA) to a final concentration of 1% for 10 min at room temperature. T-cells were spun (600 rcf×5 min) and supernatant was aspirated. T-cells were stained with FITC-conjugated anti-human CD45 (BioLegend, San Diego, CA) at 1 pg/mL final dilution and PE-conjugated anti-human CD69 (BioLegend, San Diego, CA) at 400 ng/mL final dilution for 30 minutes at room temperature in the dark, then immediately run an IntelliCyt® iQue3 flow cytometer (Sartorius AG, Göttingen, Germany). While T cells were being processed, target cells were incubated with CellTiter-Glo 2.0 (Promega, Madison, WI) for 15 min at room temperature with shaking then read for luciferase light emission on a GloMax Explorer plate reader using default settings. Specific Cytotoxicity (%) was calculated from the relative luminescence unit values (RLU) using the formula: [1−(experimental RLU/vehicle-treated RLU))×100]. The frequency of CD69+ T-cells (%) was calculated as the percentage of CD69-positive events within the CF405M-negative population. Dose-response curves and EC50 values were calculated in GraphPad Prism 9 software (GraphPad Software San Diego, CA)."}, "[6]": {"test_system": "AEPO cells", "experiment": "Surface staining of AEPO tumor cells by flow cytometry", "format": "cell-based, human", "conditions": "[…]-1 μM", "method": "Surface binding was measured on an isogenic panel of EpCAM-knockout and EpCAM-overexpressing cell lines derived from A-431, a human epidermoid carcinoma cell line (FIG. 34). AEKO and AEPO are isogenic control cell lines in which there is zero EpCAM expression (AEKO) or high EpCAM expression (AEKO-E4). AEKO is a commercially available subclone of A-431 in which human EpCAM expression is “knocked out” (disrupted) by a frameshift mutation (catalog number ab261902; Abcam, Cambridge, UK). AEPO was developed using the AEKO cell line as a starting point and restoring expression of human EpCAM by transducing with a lentiviral vector containing human EpCAM downstream of an EF1α promoter. Cells were stained with Ab1070, a conventional TCE containing the M37-H6L2 variant of the M37 clone, at a range of concentrations from 0.015 nM-1 μM.\nA single-cell suspension of adherent tumor cell lines was obtained by incubating 5 minutes with TrypLE Express (Gibco, Waltham, MA) and quenching with growth media (DMEM+10% FBS+1% penicillin/streptomycin), centrifuging at 400 rcf×5 minutes, aspirating the supernatant, and resuspending the cell pellet in CSM (AutoMACS Running Buffer, Miltenyi Biotec, Bergisch Gladbach, Germany). […]"}, "[7]": {"test_system": "human T-cells with HCT-116 target cells", "experiment": "T-cell activation (CD69 upregulation) in co-culture with HCT-116", "format": "cell-based", "conditions": "up to 1 nM, 69 hours", "description": "as §5\nCo-culture assays were used to assess T-cell activation (CD69 upregulation), cytokine production or T-cell-dependent cellular cytotoxicity (TDCC) of target cells. […] While T cells were being processed, target cells were incubated with CellTiter-Glo 2.0 (Promega, Madison, WI) for 15 min at room temperature with shaking then read for luciferase light emission on a GloMax Explorer plate reader using default settings. Specific Cytotoxicity (%) was calculated from the relative luminescence unit values (RLU) using the formula: [1−(experimental RLU/vehicle-treated RLU))×100]. The frequency of CD69+ T-cells (%) was calculated as the percentage of CD69-positive events within the CF405M-negative population. Dose-response curves and EC50 values were calculated in GraphPad Prism 9 software (GraphPad Software San Diego, CA)."}},
  "data": [
    {"molecule": "Ab1070: conventional TCE containing the M37-H6L2 variant of the M37 clone (antibody, REGION 1..482: note = Ab1070 Knob HC; REGION 1..446: note = Ab1070 Hole HC; REGION 1..215: note = Ab1070 Hole LC, conventional TCE containing the M37-H6L2 variant of the M37 clone) heavy 1: EVQLVESGGGLVQPGGSLRLSCAASGFTFNTYAMNWVRQAPGKGLEWVARIRSKYNNYATYYADSVKGRFTISRDDSKSILYLQMNSLRAEDTAVYYCVRHGNFGNSYVSWFAYWGQGTLVTVSSGGGGSGGGGSGGGGSDIQVTQSPSSLSASVGDRVTITCRSSTGAVTTSNYANWVQQKPGKAFKGLIGGTNKLAPGVPSRFSGSLSGDDATLTISSLQPEDFATYYCALWYSNLWVFGQGTKLEIKGGGGS[human IgG1 Fc with changes left out] heavy 2: EVQLVESGGGLVQPGGSLRLSCAASGFTFSNYWMNWVRQAPGKGLEWVAQIRVKSENFATHYADSVKGRFTISRDDSKSTVYLQMNSLRAEDTAVYYCTLYDGFSWGQGTLVTVSSASTKGPSVFPLAPSSKSTSGGTAALGCLVKDYFPEPVTVSWNSGALTSGVHTFPAVLQSSGLYSLSSVVTVPSSSLGTQTYICNVNHKPSNTKVDKKV[human IgG1 Fc with changes left out] light: DIQMTQSPSSLSASVGDRVTITCSASSSVSSGNFHWYQQKPGKAPKLLIYRTSNLASGVPSRFSGSGSGTDYTLTISSLQPEDFATYYCQQWSGYPYTFGQGTKVEIKRTVAAPSVFIFPPSDEQLKSGTASVVCLLNNFYPREAKVQWKVDNALQSGNSQESVTEQDSKDSTYSLSSTLTLSKADYEKHKVYACEVTHQGLSSPVTKSFNRGEC", "values": [
      {"measurement": "TDCC of AEKO target cells", "setting": "[1]", "result": "spared from TDCC"},
      {"measurement": "T-cell activation (CD69 upregulation) with AEPO", "setting": "[2]", "result": "induced activation of T-cells"},
      {"measurement": "TDCC of AEPO target cells", "setting": "[3]", "result": "killed by TDCC"},
      {"measurement": "T-cell activation (CD69 upregulation) with AEKO", "setting": "[4]", "result": "did not induce T-cell activation"},
      {"measurement": "TDCC of HCT-116 target cells", "setting": "[5]", "result": "killed by TDCC"},
      {"measurement": "surface binding to EpCAM-overexpressing AEPO (AEKO-E4) cells", "setting": "[6]", "result": "Surface binding was observed"},
      {"measurement": "T-cell activation (CD69 upregulation) with HCT-116", "setting": "[7]", "result": "induced activation of T-cells"}
    ]}
  ]
}
